Values quoted from earlier work as cited in publication PMC11006913.
Some of the results follow.

Molecular target: PROP1 R112Q (Homo sapiens) (UniProt O75360)
Settings: PBM; conditions not shown; double strand, one strand shown; scale: upbm affinity estimate (log intensity, higher = more binding, comparable within an allelic series)

Sequence	binding signal
AATTCGTA [8-mer AATTCGTA]	11.9
TATCAATA [8-mer TATCAATA]	12
ATTAAACC [8-mer ATTAAACC]	12.2
CCAATTGA [8-mer CCAATTGA]	12.6
AAATGAGC [8-mer AAATGAGC]	11.8
CCACGTGG [8-mer CCACGTGG]	10.6
ATCTATTG [8-mer ATCTATTG]	11.8
AATTCAAC [8-mer AATTCAAC]	11.8
CAATTGCC [8-mer CAATTGCC]	12.2
AATTGGCT [8-mer AATTGGCT]	12.6
TATTAAGA [8-mer TATTAAGA]	12
ATTTAGTA [8-mer ATTTAGTA]	12

Molecular target: PROP1 R99Q (Homo sapiens) (UniProt O75360)
Settings: PBM; conditions not shown; double strand, one strand shown; scale: upbm affinity estimate (log intensity, higher = more binding, comparable within an allelic series)

Sequence	binding signal
CCTACCCC [8-mer CCTACCCC]	10.9
ACGGGGGG [8-mer ACGGGGGG]	11
CCACGTGG [8-mer CCACGTGG]	10.7
